In patent publication US20240199750A1 (INNATE PHARMA, published 2024):

Tests used:
[1] = biological target: T1, high affinity IL-2Rαβγ complex on Treg cells (human, UniProt P01589 22-272; P14784 27-551; P31785 23-369); test: cell-based or functional assay
T1 sequence (looked up) 1: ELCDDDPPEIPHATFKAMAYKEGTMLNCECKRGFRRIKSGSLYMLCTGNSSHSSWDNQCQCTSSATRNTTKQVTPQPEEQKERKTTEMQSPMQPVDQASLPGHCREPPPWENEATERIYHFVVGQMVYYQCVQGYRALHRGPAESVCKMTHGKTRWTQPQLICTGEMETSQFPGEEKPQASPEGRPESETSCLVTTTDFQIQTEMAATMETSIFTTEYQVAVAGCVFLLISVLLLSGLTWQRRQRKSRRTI
T1 sequence (looked up) 2: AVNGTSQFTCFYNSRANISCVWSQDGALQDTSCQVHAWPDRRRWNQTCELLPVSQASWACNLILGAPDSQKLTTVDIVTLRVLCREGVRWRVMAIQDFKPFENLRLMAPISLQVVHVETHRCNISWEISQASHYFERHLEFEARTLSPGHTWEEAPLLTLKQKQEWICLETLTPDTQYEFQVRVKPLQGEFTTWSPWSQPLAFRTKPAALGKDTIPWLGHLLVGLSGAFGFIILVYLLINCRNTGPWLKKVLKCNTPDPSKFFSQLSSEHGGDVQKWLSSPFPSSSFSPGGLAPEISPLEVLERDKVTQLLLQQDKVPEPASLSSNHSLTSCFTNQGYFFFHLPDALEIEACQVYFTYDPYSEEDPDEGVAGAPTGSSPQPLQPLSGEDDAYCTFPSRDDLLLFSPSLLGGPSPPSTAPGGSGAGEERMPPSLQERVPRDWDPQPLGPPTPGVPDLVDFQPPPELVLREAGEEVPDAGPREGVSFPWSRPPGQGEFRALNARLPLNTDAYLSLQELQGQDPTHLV
T1 sequence (looked up) 3: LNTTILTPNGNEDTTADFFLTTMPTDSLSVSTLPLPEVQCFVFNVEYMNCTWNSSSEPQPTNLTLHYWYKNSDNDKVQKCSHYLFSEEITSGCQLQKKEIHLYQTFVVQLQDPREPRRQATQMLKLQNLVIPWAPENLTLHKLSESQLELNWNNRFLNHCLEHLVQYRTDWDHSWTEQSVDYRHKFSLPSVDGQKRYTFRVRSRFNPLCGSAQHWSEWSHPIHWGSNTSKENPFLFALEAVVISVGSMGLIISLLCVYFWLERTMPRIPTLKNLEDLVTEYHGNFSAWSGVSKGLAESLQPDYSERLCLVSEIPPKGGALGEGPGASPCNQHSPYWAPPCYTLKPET

[2] = biological target: T2, IL-2Rβ (CD122) on NK cells (human, UniProt P14784 27-551); test: cell-based or functional assay
T2 sequence (looked up): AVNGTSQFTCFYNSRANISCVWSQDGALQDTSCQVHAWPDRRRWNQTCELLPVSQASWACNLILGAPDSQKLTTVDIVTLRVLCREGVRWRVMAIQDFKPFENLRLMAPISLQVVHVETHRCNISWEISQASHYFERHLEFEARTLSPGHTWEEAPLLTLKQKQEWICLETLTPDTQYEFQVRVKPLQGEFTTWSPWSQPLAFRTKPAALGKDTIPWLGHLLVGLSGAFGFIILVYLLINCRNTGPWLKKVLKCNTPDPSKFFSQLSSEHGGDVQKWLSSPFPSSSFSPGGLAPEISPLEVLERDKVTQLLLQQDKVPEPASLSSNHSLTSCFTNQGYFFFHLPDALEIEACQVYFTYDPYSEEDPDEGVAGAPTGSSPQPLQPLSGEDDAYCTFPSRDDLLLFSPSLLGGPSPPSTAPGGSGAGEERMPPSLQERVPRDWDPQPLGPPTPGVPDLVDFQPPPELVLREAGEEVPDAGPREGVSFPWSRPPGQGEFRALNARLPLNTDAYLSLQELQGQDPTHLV

[3] = biological target: T1, high affinity IL-2Rαβγ complex on Treg …; test: cell-based or functional assay; remark: listed apart in the source
[4] = biological target: T3, Human NKp46 recombinant proteins (human, UniProt O76036 22-258); test: SPR (Biacore T100, 25 C), protein captured on Protein-A chip, soluble recombinant human NKp46 6.25-400 nM injected, 1:1 kinetic model, monovalent affinity
T3 construct: also called recombinant human NKp46 proteins
T3 sequence: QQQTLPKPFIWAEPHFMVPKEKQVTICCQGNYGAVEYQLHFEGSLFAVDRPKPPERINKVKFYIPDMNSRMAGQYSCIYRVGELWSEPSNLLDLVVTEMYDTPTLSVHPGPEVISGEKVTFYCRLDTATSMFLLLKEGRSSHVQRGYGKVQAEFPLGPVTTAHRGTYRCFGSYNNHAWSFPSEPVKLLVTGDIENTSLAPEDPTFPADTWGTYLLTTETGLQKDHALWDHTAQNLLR
Description: SPR measurements were performed on a Biacore T100 apparatus (Biacore GE Healthcare) at 25° C. In all Biacore experiments HBS-EP+ (Biacore GE Healthcare) and NaOH 10 mM served as running buffer and regeneration buffer respectively. Sensorgrams were analyzed with Biacore T100 Evaluation software. Protein-A was purchased from (GE Healthcare). Human NKp46 recombinant proteins were cloned, produced and purified at Innate Pharma.
Protein-A proteins were immobilized covalently to carboxyl groups in the dextran layer on a Sensor Chip CM5. The chip surface was activated with EDC/NHS (N-ethyl-N′-(3-dimethylaminopropyl) carbodiimidehydrochloride and N-hydroxysuccinimide (Biacore GE Healthcare)). Protein-A was diluted to 10 μg/ml in coupling buffer (10 mM acetate, pH 5.6) and injected until the appropriate immobilization level was reached (i.e. 2000 RU). Deactivation of the remaining activated groups was performed using 100 mM ethanolamine pH 8 (Biacore GE Healthcare).
Seven serial dilutions of human NKp46 recombinant proteins, ranging from 6.25 to 400 nM were sequentially injected over the captured Bi-Specific antibodies and allowed to dissociate for 10 min before regeneration. The entire sensorgram sets were fitted using the 1:1 kinetic binding model.

[5] = biological target: T4, human FcRn (recombinant FcRn proteins) (human, UniProt P55899 part only; P61769 part only); test: SPR, recombinant human FcRn immobilised on CM5 chip, SCK/Two state reaction
T4 construct: Immobilised on a CM5 chip; also called neonatal Fc receptor
T4 sequence (P55899 24-297 limits assumed, chain 1 of 2): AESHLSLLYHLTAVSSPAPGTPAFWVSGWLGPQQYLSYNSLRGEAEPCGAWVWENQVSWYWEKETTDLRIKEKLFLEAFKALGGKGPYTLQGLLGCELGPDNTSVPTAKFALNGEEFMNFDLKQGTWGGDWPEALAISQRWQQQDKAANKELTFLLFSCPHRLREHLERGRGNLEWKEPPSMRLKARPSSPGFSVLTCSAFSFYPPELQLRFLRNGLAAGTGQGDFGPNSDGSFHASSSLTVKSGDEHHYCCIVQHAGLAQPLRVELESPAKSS
T4 sequence (P61769 21-119 limits assumed, chain 2 of 2, further chain): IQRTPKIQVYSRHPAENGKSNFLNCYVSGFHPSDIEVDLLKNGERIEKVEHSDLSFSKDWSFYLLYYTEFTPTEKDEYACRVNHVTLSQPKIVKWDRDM

B1: IC-T6-IC-IL2pWT (Fc fusion)
chain 1: EVQLVESGGGLVQPGRSLRLSCAASGFTFDNYAMHWVRQAPGKGLEWVSGISRSSGDIDYADSVKGRFTISRDNAKNSLYLQMNSLRAEDTALYYCARGGVGSFDTWGQGTMVTVSSASTKGPSVFPLAPSSKSTSGGTAALGCLVKDYFPEPVTVSWNSGALTSGVHTFPAVLQSSGLYSLSSVVTVPSSSLGTQTYICNVNHKPSNTKVDKRV[human IgG1 Fc with N297S (EU numbers) not spelt out]TGSEVQLVQSGAEVKKSGESLKISCKGSGYSFTSYWIGWVRQMPGKGLEWMGIFYPGDSSTRYSPSFQGQVTISADKSVNTAYLQWSSLKASDTAMYYCARRRNWGNAFDIWGQGTMVTVSSRTVAAPSVFIFPPSDEQLKSGTASVVCLLNNFYPREAKVQWKVDNALQSGNSQESVTEQDSKDSTYSLSSTLTLSKADYEKHKVYACEVTHQGLSSPVTKSFNRGEC
chain 2: EIVLTQSPATLSLSPGERATLSCRASQSVRSYLAWYQQKPGQAPRLLFSDASNRATGIPARFSGSGSGTDFTLTISSLEPEDFAVYYCQQYRYSPRTFGQGTKVEIKRTVAAPSVFIFPPSDEQLKSGTASVVCLLNNFYPREAKVQWKVDNALQSGNSQESVTEQDSKDSTYSLSSTLTLSKADYEKHKVYACEVTHQGLSSPVTKSFNRGE[human IgG1 Fc with N297S (EU numbers) not spelt out]
chain 3: [about 100 residues not spelt out]ASTKGPSVFPLAPSSKSTSGGTAALGCLVKDYFPEPVTVSWNSGALTSGVHTFPAVLQSSGLYSLSSVVTVPSSSLGTQTYICNVNHKPSNTKVDKRVEPKSCDKTHSGSSSSGSSSSGSSSSTKKTQLQLEHLLLDLQMILNGINNYKNPKLTRMLTFKFYMPKKATELKHLQCLEEELKPLEEVLNLAQSKNFHLRPRDLISNINVIVLELKGSETTFMCEYADETATIVEFLNRWITFCQSIISTLT
% pSTAT5, EC50 Tregs [1]: 2 pM
% pSTAT5, EC50 NK cells [2]: 0.6 nM

B2: IC-T6-IC-IL2v (Fc fusion)
chain 1: EVQLVESGGGLVQPGRSLRLSCAASGFTFDNYAMHWVRQAPGKGLEWVSGISRSSGDIDYADSVKGRFTISRDNAKNSLYLQMNSLRAEDTALYYCARGGVGSFDTWGQGTMVTVSSASTKGPSVFPLAPSSKSTSGGTAALGCLVKDYFPEPVTVSWNSGALTSGVHTFPAVLQSSGLYSLSSVVTVPSSSLGTQTYICNVNHKPSNTKVDKRV[human IgG1 Fc with N297S (EU numbers) not spelt out]TGSEVQLVQSGAEVKKSGESLKISCKGSGYSFTSYWIGWVRQMPGKGLEWMGIFYPGDSSTRYSPSFQGQVTISADKSVNTAYLQWSSLKASDTAMYYCARRRNWGNAFDIWGQGTMVTVSSRTVAAPSVFIFPPSDEQLKSGTASVVCLLNNFYPREAKVQWKVDNALQSGNSQESVTEQDSKDSTYSLSSTLTLSKADYEKHKVYACEVTHQGLSSPVTKSFNRGEC
chain 2: EIVLTQSPATLSLSPGERATLSCRASQSVRSYLAWYQQKPGQAPRLLFSDASNRATGIPARFSGSGSGTDFTLTISSLEPEDFAVYYCQQYRYSPRTFGQGTKVEIKRTVAAPSVFIFPPSDEQLKSGTASVVCLLNNFYPREAKVQWKVDNALQSGNSQESVTEQDSKDSTYSLSSTLTLSKADYEKHKVYACEVTHQGLSSPVTKSFNRGE[human IgG1 Fc with N297S (EU numbers) not spelt out]
chain 3: [about 100 residues not spelt out]ASTKGPSVFPLAPSSKSTSGGTAALGCLVKDYFPEPVTVSWNSGALTSGVHTFPAVLQSSGLYSLSSVVTVPSSSLGTQTYICNVNHKPSNTKVDKRVEPKSCDKTHSGSSSSGSSSSAPASSSTKKTQLQLEHLLLDLQMILNGINNYKNPKLTRMLTAKFAMPKKATELKHLQCLEEELKPLEEVLNGAQSKNFHLRPRDLISNINVIVLELKGSETTFMCEYADETATIVEFLNRWITFAQSIISTLT
EC50 for STAT5 phosphorylation among the Treg [3]: ~3 log

B3: CD19-F13-NKp46-3 (bispecific antibody, human IgG1, kappa)
chain 1: DIQLTQSPASLAVSLGQRATISCKASQSVDYDGDSYLNWYQQIPGQPPKLLIYDASNLVSGIPPRFSGSGSGTDFTLNIHPVEKVDAATYHCQQSTEDPWTFGGGTKLEIKRTVAAPSVFIFPPSDEQLKSGTASVVCLLNNFYPREAKVQWKVDNALQSGNSQESVTEQDSKDSTYSLSSTLTLSKADYEKHKVYACEVTHQGLSSPVTKSFNRGE[human IgG1 Fc not spelt out]
chain 2: QVQLQQSGAELVRPGSSVKISCKASGYAFSSYWMNWVKQRPGQGLEWIGQIWPGDGDTNYNGKFKGKATLTADESSSTAYMQLSSLASEDSAVYFCARRETTTVGRYYYAMDYWGQGTTVTVSSASTKGPSVFPLAPSSKSTSGGTAALGCLVKDYFPEPVTVSWNSGALTSGVHTFPAVLQSSGLYSLSSVVTVPSSSLGTQTYICNVNHKPSNTKVDKRV[human IgG1 Fc not spelt out]TGSEVQLQQSGPELVKPGASVKISCKTSGYTFTEYTMHWVKQSHGKSLEWIGGISPNIGGTSYNQKFKGKATLTVDKSSSTAYMELRSLTSEDSAVYYCARRGGSFDYWGQGTTLTVSSVEGGSGGSGGSGGSGGVDDIVMTQSPATLSVTPGDRVSLSCRASQSISDYLHWYQQKSHESPRLLIKYASQSISGIPSRFSGSGSGSDFTLSINSVEPEDVGVYYCQNGHSFPLTFGAGTKLELK
notes: Heterodimer: VH anti-CD19-CH1-CH2-CH3-(VH-Vk) anti-NKp46 scFv, paired with Vk anti-CD19-Ck-CH2-CH3; copies: 1 + 1
Kd [4]: 68 nM
koff [4]: 0.00565 s⁻¹
kon [4]: 83000 M⁻¹ s⁻¹

B4: CD19-F14-NKp46-3 (bispecific antibody, human IgG1, kappa)
chain 1: DIQLTQSPASLAVSLGQRATISCKASQSVDYDGDSYLNWYQQIPGQPPKLLIYDASNLVSGIPPRFSGSGSGTDFTLNIHPVEKVDAATYHCQQSTEDPWTFGGGTKLEIKRTVAAPSVFIFPPSDEQLKSGTASVVCLLNNFYPREAKVQWKVDNALQSGNSQESVTEQDSKDSTYSLSSTLTLSKADYEKHKVYACEVTHQGLSSPVTKSFNRGE[human IgG1 Fc with N297S (EU numbers) not spelt out]
chain 2: QVQLQQSGAELVRPGSSVKISCKASGYAFSSYWMNWVKQRPGQGLEWIGQIWPGDGDTNYNGKFKGKATLTADESSSTAYMQLSSLASEDSAVYFCARRETTTVGRYYYAMDYWGQGTTVTVSSASTKGPSVFPLAPSSKSTSGGTAALGCLVKDYFPEPVTVSWNSGALTSGVHTFPAVLQSSGLYSLSSVVTVPSSSLGTQTYICNVNHKPSNTKVDKRV[human IgG1 Fc with N297S (EU numbers) not spelt out]TGSEVQLQQSGPELVKPGASVKISCKTSGYTFTEYTMHWVKQSHGKSLEWIGGISPNIGGTSYNQKFKGKATLTVDKSSSTAYMELRSLTSEDSAVYYCARRGGSFDYWGQGTTLTVSSVEGGSGGSGGSGGSGGVDDIVMTQSPATLSVTPGDRVSLSCRASQSISDYLHWYQQKSHESPRLLIKYASQSISGIPSRFSGSGSGSDFTLSINSVEPEDVGVYYCQNGHSFPLTFGAGTKLELK
notes: Same structure as F13 but with the CH2 mutation N297S to abolish N-linked glycosylation; copies: 1 + 1
Kd [5]: 14 nM
Kd [4]: 62 nM
koff [4]: 0.00546 s⁻¹
kon [4]: 88300 M⁻¹ s⁻¹
